“And” between values parts separate entries of the source, which are not always exact repeats. Identical values can stand only once. Inconclusive results, whose numbers are uncertain, are shown with a selection of clear calls. For part of these data: Potencies beside an inconclusive call are fits to weak or partial responses and may not hold up. The source made the active and inactive calls. Unless noted, the call rests on the fitted dose curve; in most records, active means well fitted curve in the direction sought with a large enough effect in the repeat runs; inconclusive means weak or mixed curves; inactive means no such curve, though single readings can be large; an effect the other way counts as inactive or inconclusive.
Key:
[1] = qHTS assay to identify small molecule antagonists of the TGF-beta/Smad signaling pathway (AID 1346924; active means well fitted inhibition curve with a large enough effect in the signal ratio in the repeat runs, not every such curve was filed as active; inconclusive means weak or mixed curves; the % refers to the signal ratio); conditions: SBE-bla HEK293T, TGF-beta/Smad reporter, beta-lactamase ratio; activity, negative = inhibition: at 76.8 µM (top of the series) unless noted
Outline: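 Read-out was FRET-substrate fluorescence (405 nm excitation; 460 and 530 nm emission) after 2 h at room temperature. Before that, cells carrying a Smad-binding-element beta-lactamase reporter in HEK 293T had been stimulated 5 h at 37 C with TGF-beta1 (0.25 ng/mL addition solution) in the presence of test compound.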

[2] = Human pregnane X receptor (PXR) small molecule agonists, qHTS cell viability counter screen (AID 1346977); further: nearly all actives have a fitted effect of over 50% in size
Outline: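 Cytotoxicity counter screen run in the same wells as the PXR luciferase assay, using PXR-Luc HepG2 cells in charcoal-stripped serum medium. Viability: CellTiter-Fluor fluorescence after 24hr compound treatment.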

[3] = Caspase-3/7 induction in HepG2 cells by small molecules, qHTS assay (AID 1346978); further: nearly all actives have a fitted effect of over 15% in size
Outline: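 Caspase-3/7 induction was measured by Caspase-Glo 3/7 luminescence (30 min, room temperature) after a 17 hr compound exposure of wild-type HepG2 cells seeded at 2,000 per well and pre-incubated 5 hr.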

[4] = Caspase-3/7 induction in HepG2 cells by small molecules, qHTS cell viability counter screen (AID 1346981); further: nearly all actives have a fitted effect of over 30% in size
Outline: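 Treatment of HepG2 cells with DMSO-delivered compounds ran 16 hr at 37 C following a 5-hr pre-incubation of 2,000 cells/well. CellTiter-Fluor fluorescence, read after 1 hr, served as the viability measure in a qHTS format.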

[5] = molecular target: Cytochrome P450 3A4 (Homo sapiens) (UniProt P08684); assay: Cytochrome P450 Family 3 Subfamily A Member 4 (CYP3A4) small molecule antagonists: luciferase reporter qHTS assay (AID 1671201); further: nearly all actives have a fitted effect of over 50% in size
UniProt P08684, sequence (P08684 whole entry, looked up): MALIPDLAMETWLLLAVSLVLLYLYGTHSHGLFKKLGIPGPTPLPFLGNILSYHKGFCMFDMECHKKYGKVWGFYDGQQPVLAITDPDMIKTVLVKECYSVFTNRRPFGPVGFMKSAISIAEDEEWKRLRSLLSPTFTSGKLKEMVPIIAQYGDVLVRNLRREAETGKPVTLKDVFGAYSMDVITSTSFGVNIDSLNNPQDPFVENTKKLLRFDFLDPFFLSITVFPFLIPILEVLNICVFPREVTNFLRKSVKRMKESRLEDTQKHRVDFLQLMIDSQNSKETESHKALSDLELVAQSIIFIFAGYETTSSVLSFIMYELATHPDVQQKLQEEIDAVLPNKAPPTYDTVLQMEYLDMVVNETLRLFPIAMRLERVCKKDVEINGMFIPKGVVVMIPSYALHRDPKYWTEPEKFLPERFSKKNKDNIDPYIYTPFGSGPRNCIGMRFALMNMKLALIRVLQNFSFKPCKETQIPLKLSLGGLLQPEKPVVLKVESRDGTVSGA
Outline: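 qHTS, 1536-well. CYP3A4 + proluciferin substrate, cpd 10 min RT → NADPH regen 1 h RT → detection reagent 20 min → luminescence (RLU). Ketoconazole positive control.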

[6] = Caspase-3/7 induction in CHO-K1 cells by small molecules, qHTS cell viability counter screen (AID 1346979); further: nearly all actives have a fitted effect of over 35% in size
Outline: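 Cytotoxicity counter screen run in parallel with the caspase-3/7 assay: CHO-K1 cells, 16hr compound treatment at 37C, then CellTiter-Fluor for 1hr before fluorescence reading.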

[7] = molecular target: Nuclear receptor subfamily 1 group I member 2 (Homo sapiens) (UniProt O75469); assay: Human pregnane X receptor (PXR) small molecule agonists, qHTS assay (AID 1346982); further: nearly all actives have a fitted effect of over 35% in size
UniProt O75469, sequence (O75469 whole entry, looked up): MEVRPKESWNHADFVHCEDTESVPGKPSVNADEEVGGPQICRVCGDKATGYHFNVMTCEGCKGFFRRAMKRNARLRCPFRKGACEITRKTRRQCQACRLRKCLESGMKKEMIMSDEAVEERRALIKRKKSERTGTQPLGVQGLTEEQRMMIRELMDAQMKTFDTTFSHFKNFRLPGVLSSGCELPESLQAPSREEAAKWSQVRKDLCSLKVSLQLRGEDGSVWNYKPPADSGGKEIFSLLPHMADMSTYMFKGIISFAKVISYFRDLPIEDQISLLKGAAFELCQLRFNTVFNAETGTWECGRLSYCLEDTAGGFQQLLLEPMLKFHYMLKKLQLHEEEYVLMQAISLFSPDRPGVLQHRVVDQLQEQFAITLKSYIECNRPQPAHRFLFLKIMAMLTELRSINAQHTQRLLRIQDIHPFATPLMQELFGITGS
Outline: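 Stable HepG2 line reporting PXR-mediated CYP3A4 expression via luciferase. Treatment: 24 hr with compounds in DMSO at 37 C. Detection: ONE-Glo luminescence.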

[8] = molecular target: Cytochrome P450 2C9 (Homo sapiens) (UniProt P11712); assay: Cytochrome P450 Family 2 Subfamily C Member 9 (CYP2C9) small molecule antagonists: luciferase reporter qHTS assay (AID 1671198); further: nearly all actives have a fitted effect of over 50% in size
UniProt P11712, sequence (P11712 whole entry, looked up): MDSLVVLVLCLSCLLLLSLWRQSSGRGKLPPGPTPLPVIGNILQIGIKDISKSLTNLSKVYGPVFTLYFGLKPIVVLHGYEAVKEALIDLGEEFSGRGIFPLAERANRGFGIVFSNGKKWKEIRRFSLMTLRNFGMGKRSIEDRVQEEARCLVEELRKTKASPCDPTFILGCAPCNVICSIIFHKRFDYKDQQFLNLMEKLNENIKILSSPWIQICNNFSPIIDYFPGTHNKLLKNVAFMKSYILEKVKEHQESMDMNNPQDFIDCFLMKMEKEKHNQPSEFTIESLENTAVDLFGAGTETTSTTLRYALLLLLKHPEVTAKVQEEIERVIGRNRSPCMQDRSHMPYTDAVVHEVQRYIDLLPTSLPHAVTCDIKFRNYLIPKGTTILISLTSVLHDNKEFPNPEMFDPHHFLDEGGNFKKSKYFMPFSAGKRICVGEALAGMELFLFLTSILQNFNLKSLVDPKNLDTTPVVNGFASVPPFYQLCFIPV
Outline: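 Enzyme-substrate mix preincubated with compound 10 min at room temperature; reaction started with NADPH regeneration solution, 1 h 37C. Luminescent luciferin product read after 20 min detection reagent.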

[9] = Caspase-3/7 induction in CHO-K1 cells by small molecules, qHTS assay (AID 1346980); further: nearly all actives have a fitted effect of over 15% in size
Outline: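 Luminescent Caspase-Glo 3/7 read (30min, room temperature) quantified apoptosis induction. Cells were wild-type CHO-K1, treated with compound for 17hr at 37 C and 5% CO2.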

[10] = molecular target: Cytochrome P450 1A2 (Homo sapiens) (UniProt P05177); assay: Cytochrome P450 Family 1 Subfamily A Member 2 (CYP1A2) small molecule antagonists: luciferase reporter qHTS assay (AID 1671199); further: nearly all actives have a fitted effect of over 50% in size
UniProt P05177, sequence (P05177 whole entry, looked up): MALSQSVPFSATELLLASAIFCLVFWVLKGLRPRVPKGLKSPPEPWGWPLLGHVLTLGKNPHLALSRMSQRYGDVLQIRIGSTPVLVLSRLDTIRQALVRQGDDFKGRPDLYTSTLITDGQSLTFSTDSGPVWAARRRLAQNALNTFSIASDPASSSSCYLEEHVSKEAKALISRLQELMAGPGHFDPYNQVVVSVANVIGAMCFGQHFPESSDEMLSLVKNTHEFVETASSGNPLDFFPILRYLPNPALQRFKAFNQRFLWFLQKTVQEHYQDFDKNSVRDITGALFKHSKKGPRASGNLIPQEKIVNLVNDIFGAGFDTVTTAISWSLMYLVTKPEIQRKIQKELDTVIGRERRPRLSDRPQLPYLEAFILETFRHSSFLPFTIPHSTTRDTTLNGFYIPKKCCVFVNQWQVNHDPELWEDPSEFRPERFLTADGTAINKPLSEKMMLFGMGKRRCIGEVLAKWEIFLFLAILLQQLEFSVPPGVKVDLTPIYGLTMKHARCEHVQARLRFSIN
Outline: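 Read-out is luminescence from luciferin detection reagent (20 min) proportional to CYP1A2 activity; compounds in DMSO preincubated 10 min with enzyme and proluciferin substrate, then NADPH regeneration solution, 1 h, room temperature.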

[11] = molecular target: Cytochrome P450 2D6 (Homo sapiens) (UniProt P10635); assay: Cytochrome P450 Family 2 Subfamily D Member 6 (CYP2D6) small molecule antagonists: luciferase reporter qHTS assay (AID 1671196); further: nearly all actives have a fitted effect of over 50% in size
UniProt P10635, sequence (P10635 whole entry, looked up): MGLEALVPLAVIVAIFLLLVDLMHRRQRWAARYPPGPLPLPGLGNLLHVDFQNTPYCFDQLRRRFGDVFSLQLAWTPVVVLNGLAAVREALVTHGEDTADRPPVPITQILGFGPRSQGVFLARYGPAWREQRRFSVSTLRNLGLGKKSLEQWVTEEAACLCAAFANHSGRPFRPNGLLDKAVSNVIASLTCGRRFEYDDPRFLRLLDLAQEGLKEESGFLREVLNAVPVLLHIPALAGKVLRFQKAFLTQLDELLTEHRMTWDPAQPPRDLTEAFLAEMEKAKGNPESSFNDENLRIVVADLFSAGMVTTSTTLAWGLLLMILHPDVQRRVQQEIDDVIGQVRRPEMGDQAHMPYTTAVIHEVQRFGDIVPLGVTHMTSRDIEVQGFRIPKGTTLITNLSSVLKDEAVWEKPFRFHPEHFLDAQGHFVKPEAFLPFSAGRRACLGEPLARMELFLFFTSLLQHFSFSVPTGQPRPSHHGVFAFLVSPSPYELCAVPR
Outline: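 Chemicals tested for interference with CYP2D6 activity; proluciferin substrate, NADPH regeneration, 1 h at room temperature, luminescent detection.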

[12] = molecular target: Nuclear receptor subfamily 1 group I member 2 (Rattus norvegicus) (UniProt Q9R1A7); assay: Rat pregnane X receptor (rPXR) activation by small molecules, qHTS assay (AID 1346983); conditions: rPXR luciferase reporter cells, One-Glo luminescence, 24 h; max activation: hits give high values; further: nearly all actives have a fitted effect of over 20% in size
UniProt Q9R1A7, sequence (Q9R1A7 whole entry, looked up): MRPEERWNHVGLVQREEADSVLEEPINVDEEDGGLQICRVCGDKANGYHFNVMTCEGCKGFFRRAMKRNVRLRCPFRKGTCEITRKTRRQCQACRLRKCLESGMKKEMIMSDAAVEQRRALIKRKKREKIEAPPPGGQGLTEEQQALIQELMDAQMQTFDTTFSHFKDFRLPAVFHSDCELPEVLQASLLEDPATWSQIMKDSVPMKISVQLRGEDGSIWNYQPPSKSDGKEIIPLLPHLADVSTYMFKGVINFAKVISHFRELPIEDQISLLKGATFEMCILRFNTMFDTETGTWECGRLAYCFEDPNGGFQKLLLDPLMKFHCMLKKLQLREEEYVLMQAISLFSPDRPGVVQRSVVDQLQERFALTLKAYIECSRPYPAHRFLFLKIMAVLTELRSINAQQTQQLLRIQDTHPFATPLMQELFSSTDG
Outline: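 Luminescent readout (One-Glo luciferase, 30 min room temperature) followed 24 hr compound treatment at 37 C of rPXR cells plated 2,000 per well and preincubated 5hr; qHTS format with compounds delivered in DMSO.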

[13] = molecular target: Voltage-gated inwardly rectifying potassium channel KCNH2 (Homo sapiens) (UniProt Q12809); assay: Human Ether-a-go-go-Related Gene (hERG) channel small molecule antagonists: fluorescence cell-based qHTS assay (AID 1671200); further: nearly all actives have a fitted effect of over 50% in size
UniProt Q12809, sequence (Q12809 whole entry, looked up): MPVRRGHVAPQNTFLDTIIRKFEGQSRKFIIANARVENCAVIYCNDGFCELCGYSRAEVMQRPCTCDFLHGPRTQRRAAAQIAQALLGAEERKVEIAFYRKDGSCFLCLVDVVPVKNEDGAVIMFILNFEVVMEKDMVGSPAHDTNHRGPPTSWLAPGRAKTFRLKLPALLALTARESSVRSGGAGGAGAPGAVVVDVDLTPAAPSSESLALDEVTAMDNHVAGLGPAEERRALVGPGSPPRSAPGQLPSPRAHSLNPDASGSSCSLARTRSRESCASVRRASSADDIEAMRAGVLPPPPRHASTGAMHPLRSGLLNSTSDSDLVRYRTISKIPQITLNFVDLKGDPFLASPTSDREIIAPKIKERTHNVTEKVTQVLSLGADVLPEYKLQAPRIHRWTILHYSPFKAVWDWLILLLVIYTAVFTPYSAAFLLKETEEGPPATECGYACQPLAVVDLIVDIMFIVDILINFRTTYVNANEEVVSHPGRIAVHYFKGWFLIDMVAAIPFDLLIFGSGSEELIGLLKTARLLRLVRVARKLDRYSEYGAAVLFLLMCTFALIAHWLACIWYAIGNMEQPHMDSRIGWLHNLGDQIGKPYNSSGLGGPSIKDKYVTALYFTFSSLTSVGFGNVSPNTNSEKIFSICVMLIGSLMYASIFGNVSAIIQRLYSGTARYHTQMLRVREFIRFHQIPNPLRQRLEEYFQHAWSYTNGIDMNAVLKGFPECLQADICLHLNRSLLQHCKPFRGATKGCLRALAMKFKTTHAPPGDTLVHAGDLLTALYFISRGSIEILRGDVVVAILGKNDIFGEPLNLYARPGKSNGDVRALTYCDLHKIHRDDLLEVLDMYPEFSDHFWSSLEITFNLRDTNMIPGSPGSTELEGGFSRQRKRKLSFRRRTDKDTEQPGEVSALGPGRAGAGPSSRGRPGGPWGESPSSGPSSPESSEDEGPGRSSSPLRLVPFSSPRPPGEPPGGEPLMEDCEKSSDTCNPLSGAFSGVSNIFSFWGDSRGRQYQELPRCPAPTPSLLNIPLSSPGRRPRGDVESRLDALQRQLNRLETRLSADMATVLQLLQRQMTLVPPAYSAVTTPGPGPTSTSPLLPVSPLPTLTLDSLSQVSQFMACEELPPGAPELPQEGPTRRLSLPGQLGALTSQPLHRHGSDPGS
Outline: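 Fluorescence at 540 nm emission (480 nm excitation) was recorded kinetically for 2 min at 1-second intervals once the thallium-containing stimulus reached cells previously loaded with FluxOR II dye.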
Potency means the concentration at half of the fitted maximal effect; tags describe the fitted curve by direction and shape or compound fluorescence and quenching.

O=C(c1ccc(O)c(O)c1)c1ccc(O)cc1O
inconclusive: activity, negative = inhibition [1] -4.11% | Potency [3] 76.8 µM [activator, single point] | Potency [4] 68.5 µM [cytotoxic, single point]
active: Potency [2] 50.1 µM | Potency [5] 5.63 µM

COc1ccc2cc3[n+](cc2c1OC)CCc1cc2c(cc1-3)OCO2
inactive: Potency [8]
inconclusive: Potency [1] 22 µM | Potency [2] 48.9 µM [cytotoxic, partial curve] | Potency [6] 69.1 µM [cytotoxic, single point] | Potency [7] 34.6 µM [activator, partial curve]

COc1ccc(C(=O)/C(Br)=C\C(=O)O)cc1
active: Potency [2] 61.1 µM
inconclusive: activity, negative = inhibition [1] 11.3% | Potency [9] 54.5 µM [activator, partial curve] | Potency [4] 68.6 µM [cytotoxic, single point] | Potency [10] 35.6 µM [inhibitor, partial curve] | Potency [5] 63.3 µM [inhibitor, partial curve]

OCc1c[nH]c2ccccc12
inconclusive: Potency [1] 49 µM [rising, partial curve, poor fit] | Potency [2] 61.1 µM [cytotoxic] | Potency [4] 68.6 µM [cytotoxic, partial curve, poor fit] | Potency [11] 34.6 µM [inhibitor, partial curve]

c1cc(C(c2ccc(OCC3CO3)cc2)c2ccc(OCC3CO3)cc2)ccc1OCC1CO1 (centres undefined)
inconclusive: activity, negative = inhibition [1] -19.2% | Potency [2] 68.6 µM [cytotoxic, single point] | Potency [9] 54.5 µM [activator, partial curve] | Potency [4] 68.6 µM [cytotoxic, single point]
active: Potency [7] 27.3 µM | Potency [8] 20 µM

CCCCC(CC)COP(=O)(O)OCC(CC)CCCC (centres undefined)
inconclusive: activity, negative = inhibition [1] -11.2% | Potency [2] 70.8 µM [cytotoxic, partial curve, poor fit] and 68.6 µM [cytotoxic, single point] | Potency [6] 77.1 µM [cytotoxic, single point] and 68.6 µM [cytotoxic] | Potency [4] 48.6 µM [cytotoxic, partial curve] | Potency [11] 56.5 µM [inhibitor, partial curve] | Potency [10] 79.6 µM [inhibitor]

Cc1cc(=O)oc2cc(N(C)C)ccc12
active: Potency [8] 44.8 µM
inconclusive: Potency [1] 43.6 µM [fluorescent, partial curve] | Potency [2] 54.5 µM [rising, partial curve] | Potency [6] 34.4 µM [rising, partial curve] | Potency [4] 30.6 µM [rising, partial curve] | Potency [11] 71 µM [inhibitor]

[Cl][Au]([Cl])[Cl]
inconclusive: activity, negative = inhibition [1] -15.3%
active: Potency [2] 13.7 µM

CCCCCCOc1ccc(O)cc1
inconclusive: activity, negative = inhibition [1] -15.2% | Potency [2] 61.1 µM [cytotoxic, single point] | Potency [4] 30.6 µM [cytotoxic, full curve] | Potency [5] 89.4 µM [inhibitor, single point]
active: Potency [11] 79.6 µM | Potency [8] 39.9 µM

CCCC(=O)OC[C@@H](OC(=O)CCC)[C@@H](OC(=O)CCC)[C@H](Cn1c2nc(=O)[nH]c(=O)c-2nc2cc(C)c(C)cc21)OC(=O)CCC
inconclusive: Potency [1] 19 µM [fluorescent, partial curve] | Potency [2] 29.8 µM [rising, partial curve] | Potency [4] 26.6 µM [rising, partial curve] | Potency [7] 6.68 µM [activator, single point] | Potency [12] 28.2 µM [activator, partial curve, poor fit] | Potency [13] 9.52 µM [inhibitor, partial curve]
active: Potency [11] 8.71 µM | Potency [8] 13.8 µM

— PubChem BioAssay (Tox21)
